# Results: the antibiotic and cytotoxicity screens of Wong et al. (2023)
# Some of the results follow.
# Test system: HepG2
# Test: cytotoxicity call (relative viability < 0.9)
# Conditions: 10 µM
row,SMILES,cytotoxicity call
1,Cn1cnc(S(=O)(=O)N[C@@H]2C=C[C@@H](CC(=O)Nc3ccccc3)O[C@@H]2CO)c1,inactive
2,[N-]=[N+]=Nc1ccccc1[C@@H]1OC(c2ccc(OCCCO)cc2)=N[C@]1(CCS(=O)(=O)c1ccccc1)C(=O)NCc1ccccc1,inactive
3,C[C@@H]1CCCCO[C@H](CN(C)Cc2ccc(C(=O)O)cc2)[C@H](C)CN([C@H](C)CO)C(=O)c2cc(NC(=O)Nc3ccc4c(c3)OCO4)ccc2O1,inactive
4,COc1ccc(S(=O)(=O)N(C)C[C@@H]2Oc3cc(C#CC4CC4)ccc3S(=O)(=O)N([C@H](C)CO)C[C@H]2C)cc1,inactive
5,C[C@@H]1CCCCO[C@H](CN(C)CC2CCCCC2)[C@@H](C)CN([C@H](C)CO)C(=O)c2cc(NC(=O)NC3CCCCC3)ccc2O1,inactive
6,CN1CCN(Cc2ccc(NC(=O)Nc3ccc(Oc4cc(NC(=O)C5CC5)ncn4)cc3)cc2C(F)(F)F)CC1,active

# Test system: S. aureus RN4220
# Test: growth inhibition call (relative growth <= 0.2)
# Conditions: 50 µM
row,SMILES,growth inhibition call
1,Cc1noc(C)c1NC(=O)N(C)C[C@@H]1OCCCC[C@@H](C)Oc2ccc(NS(=O)(=O)c3ccc(Cl)cc3)cc2C(=O)N([C@@H](C)CO)C[C@H]1C,inactive
2,C[C@@H]1CN([C@@H](C)CO)C(=O)c2cc(NC(=O)c3ccccc3)ccc2O[C@@H](C)CCCCO[C@@H]1CN(C)C(=O)NC1CCCCC1,inactive
3,C[C@@H]1CC=CC[C@@H](c2cccc(Cl)c2)NC(=O)[C@@H](Cc2ccccc2)N(C)C(=O)c2ccccc2O1,inactive
4,C[C@H](CO)N1C[C@H](C)[C@H](CN(C)C(=O)Nc2ccc(F)cc2)Oc2c(NC(=O)c3ccc(-c4nccs4)cc3)cccc2C1=O,inactive
5,C[C@@H]1CN([C@H](C)CO)C(=O)c2cc(NC(=O)Cc3ccccc3)ccc2O[C@H]1CN(C)Cc1ccc(Cl)c(Cl)c1,inactive
6,C[C@@H]1CN([C@H](C)CO)C(=O)c2cccc(NC(=O)NC3CCCCC3)c2O[C@@H]1CN(C)Cc1ccc(-c2ccccc2)cc1,inactive
7,CCOC(=O)c1c[nH]cnc1=O,inactive
8,CCS(=O)(=O)N1C[C@]2(CCN(CC2)S(=O)(=O)c2cn(cn2)C)c2c(n(c3cc(ccc23)OC)C)[C@@H]1CO,inactive
9,Cc1c(-c2ccccc2)n(C[C@@H](O)CN)c2ccccc12,inactive
10,C[C@@H]1CCCCO[C@@H](CN(C)S(=O)(=O)c2ccccc2)[C@@H](C)CN([C@@H](C)CO)C(=O)c2cc(NS(C)(=O)=O)ccc2O1,inactive
11,Nc1ncnc2nc(N3CCCCC3)[nH]c12,inactive
12,Cc1noc(C)c1NC(=O)N(C)C[C@@H]1OCCCC[C@H](C)Oc2ccc(NS(=O)(=O)c3cccs3)cc2C(=O)N([C@H](C)CO)C[C@@H]1C,inactive
13,C[C@@H]1CN([C@H](C)CO)C(=O)Cc2cc(NC(=O)Cn3cnnn3)ccc2O[C@H]1CN(C)Cc1ccc(C(=O)Nc2ccccc2N)cc1,inactive
14,NC(=O)N1C(=O)[C@H]2[C@H](C1=O)[C@H]1C=C(CCCO)[C@@H]2[C@@H](C2CC2)N1Cc1cc2c(cc1Br)OCO2,inactive
15,COCc1cn(CC[C@H]2CC[C@@H](NC(=O)CCN3CCCCC3)[C@@H](CO)O2)nn1,inactive
16,C[C@@H]1CN([C@@H](C)CO)C(=O)c2cc(NC(=O)c3ccncc3)ccc2O[C@@H](C)CCCCO[C@@H]1CN(C)CC1CCCCC1,inactive
17,C[C@H]1CCCCO[C@H](CN(C)C(=O)NC2CCCCC2)[C@@H](C)CN([C@@H](C)CO)C(=O)c2cc(NS(=O)(=O)c3ccccc3)ccc2O1,inactive
18,CN1C(=O)c2cc(NC(=O)C3CCOCC3)ccc2OC[C@H]2O[C@H](CC(=O)NCCc3ccncc3)CC[C@H]21,inactive
19,Cc1noc(C)c1S(=O)(=O)N(C)C[C@H]1OCCCC[C@@H](C)Oc2ccc(NS(=O)(=O)c3cn(C)cn3)cc2C(=O)N([C@@H](C)CO)C[C@H]1C,inactive
20,C/C(=C\CC[C@@H](C)[C@H]1C[C@@H](O)[C@@]2(C)[C@H]3CC[C@H]4C(C)(C)[C@@H](O[C@@H]5O[C@@H](CO[C@H]6O[C@@H](CO)[C@@H](O)[C@@H](O)[C@@H]6O)[C@@H](O)[C@@H](O)[C@@H]5O)CC[C@@]45C[C@@]35C[C@@H](O)[C@]12C)C(=O)O[C@H]1O[C@@H](CO)[C@@H](O)[C@@H]1O,inactive

row,SMILES,growth inhibition call
1,C[C@H](CO)N1C[C@H](C)[C@H](CN(C)C(=O)c2ccccc2)OCCCC[C@H](C)Oc2ccc(NC(=O)CCC(F)(F)F)cc2C1=O,inactive
2,COC(=O)CN[C@H]1CCS(=O)(=O)C1,inactive
3,C[C@@H]1CN([C@H](C)CO)C(=O)c2cccc(NS(=O)(=O)c3ccccc3)c2O[C@H]1CN(C)C(=O)Nc1cccc2ccccc12,inactive
4,O=C(Cn1c(=O)n(-c2ccccc2)c(=O)n1CC(=O)N1CCOCC1)N1CCOCC1,inactive
5,C[C@@H]1CN([C@H](C)CO)C(=O)Cc2cc(NC(=O)CCC(F)(F)F)ccc2O[C@@H]1CN(C)S(C)(=O)=O,inactive
6,O=C(c1ccccc1Cl)N(c1ccc2oc(=O)sc2c1)S(=O)(=O)c1ccc(Br)cc1,inactive
7,C[C@@H]1CN([C@@H](C)CO)C(=O)c2cccc(NS(C)(=O)=O)c2O[C@H]1CN(C)Cc1ccc(C(=O)Nc2ccccc2N)cc1,inactive
8,C/C=C/C(=O)N1CCC=CC1=O,inactive
9,Cc1noc(C)c1S(=O)(=O)Nc1ccc2c(c1)CC(=O)N([C@H](C)CO)C[C@@H](C)[C@@H](CN(C)S(=O)(=O)c1ccc(F)cc1)O2,inactive
10,C[C@H](CO)N1C[C@H](C)[C@H](CN(C)C(=O)C2CCOCC2)Oc2cc(C#Cc3ccncc3)ccc2S1(=O)=O,inactive
11,CCC(=O)Nc1ccc2c(c1)C(=O)N(C)C[C@@H](OC)[C@@H](C)CN(C(=O)CN1CCOCC1)[C@H](C)CO2,inactive
12,Cc1noc(C)c1NC(=O)N(C)C[C@@H]1OCCCC[C@@H](C)Oc2ccc(NC(=O)C3CCCCC3)cc2C(=O)N([C@@H](C)CO)C[C@@H]1C,inactive
13,Cc1noc(C)c1S(=O)(=O)Nc1ccc2c(c1)C(=O)N([C@@H](C)CO)C[C@H](C)[C@@H](CN(C)C)OCCCC[C@@H](C)O2,inactive
14,C[C@H]1CCCCO[C@@H](CN(C)C(=O)Nc2ccccc2)[C@@H](C)CN([C@@H](C)CO)C(=O)c2cc(NC(=O)Cc3ccccc3)ccc2O1,inactive
15,Cn1cnc(S(=O)(=O)N[C@@H]2C=C[C@@H](CC(=O)Nc3ccccc3)O[C@@H]2CO)c1,inactive
16,[N-]=[N+]=Nc1ccccc1[C@@H]1OC(c2ccc(OCCCO)cc2)=N[C@]1(CCS(=O)(=O)c1ccccc1)C(=O)NCc1ccccc1,inactive
17,C[C@@H]1CCCCO[C@H](CN(C)Cc2ccc(C(=O)O)cc2)[C@H](C)CN([C@H](C)CO)C(=O)c2cc(NC(=O)Nc3ccc4c(c3)OCO4)ccc2O1,inactive
18,COc1ccc(S(=O)(=O)N(C)C[C@@H]2Oc3cc(C#CC4CC4)ccc3S(=O)(=O)N([C@H](C)CO)C[C@H]2C)cc1,inactive
19,C[C@@H]1CCCCO[C@H](CN(C)CC2CCCCC2)[C@@H](C)CN([C@H](C)CO)C(=O)c2cc(NC(=O)NC3CCCCC3)ccc2O1,inactive
20,CN1CCN(Cc2ccc(NC(=O)Nc3ccc(Oc4cc(NC(=O)C5CC5)ncn4)cc3)cc2C(F)(F)F)CC1,inactive
